# Reference: PMC4336329 (PLoS ONE, 2015)
# The whole screen tested about 310,000 compounds, of which about 14,000 (4.5%) showed an effect of 50% or more. Effects have a minus sign here. Some of the results follow.
# Biological target: human ether-à-go-go-related gene (hERG) potassium channel (human, UniProt Q12809)
# Test: primary screen, population patch clamp on CHO cells stably expressing hERG
# 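Further: peak tail current of the secondary pulse compared with the same well before compound.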
# Sequence of human ether-à-go-go-related gene (hERG) potassium channel (Q12809 whole entry, looked up): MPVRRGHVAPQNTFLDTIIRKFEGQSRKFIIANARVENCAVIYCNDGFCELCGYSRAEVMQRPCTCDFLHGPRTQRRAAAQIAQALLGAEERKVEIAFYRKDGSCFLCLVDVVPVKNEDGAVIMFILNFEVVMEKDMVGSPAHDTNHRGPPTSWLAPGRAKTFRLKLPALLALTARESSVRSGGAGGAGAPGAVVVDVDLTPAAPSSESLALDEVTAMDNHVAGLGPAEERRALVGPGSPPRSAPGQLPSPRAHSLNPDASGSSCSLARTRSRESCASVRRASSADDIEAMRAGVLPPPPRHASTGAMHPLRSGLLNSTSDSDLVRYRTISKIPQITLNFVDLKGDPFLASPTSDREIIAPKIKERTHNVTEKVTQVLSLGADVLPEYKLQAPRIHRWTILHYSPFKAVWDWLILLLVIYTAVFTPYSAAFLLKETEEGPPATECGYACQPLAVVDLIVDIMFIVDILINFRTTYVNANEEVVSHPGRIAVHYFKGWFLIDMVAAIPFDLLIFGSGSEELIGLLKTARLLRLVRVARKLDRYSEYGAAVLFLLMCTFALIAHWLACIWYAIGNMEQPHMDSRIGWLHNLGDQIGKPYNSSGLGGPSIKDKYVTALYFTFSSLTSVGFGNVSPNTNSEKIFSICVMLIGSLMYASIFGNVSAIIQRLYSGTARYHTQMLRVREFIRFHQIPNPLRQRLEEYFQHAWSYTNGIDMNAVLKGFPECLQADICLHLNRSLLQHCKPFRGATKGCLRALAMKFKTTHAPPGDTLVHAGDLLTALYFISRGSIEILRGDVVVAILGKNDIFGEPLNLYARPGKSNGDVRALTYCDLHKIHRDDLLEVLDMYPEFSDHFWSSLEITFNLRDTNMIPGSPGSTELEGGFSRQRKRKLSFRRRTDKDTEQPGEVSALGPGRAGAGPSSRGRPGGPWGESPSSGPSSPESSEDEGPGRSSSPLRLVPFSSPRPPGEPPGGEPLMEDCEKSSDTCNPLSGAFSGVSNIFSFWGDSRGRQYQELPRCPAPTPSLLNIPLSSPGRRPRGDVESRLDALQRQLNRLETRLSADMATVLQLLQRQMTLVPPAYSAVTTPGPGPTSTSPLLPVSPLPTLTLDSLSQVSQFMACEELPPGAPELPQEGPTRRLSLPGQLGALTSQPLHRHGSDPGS
row,Compound,"hERG current change (%, negative = inhibition) at 10uM [%]"
1,COc1cc(/C=C2/C(=O)N=C(N)N2C)cc(OC)c1OC,5.91
2,CCN(C(=O)CSc1nnc(-c2ccncc2)n1Cc1ccccc1)C1CCS(=O)(=O)C1 (centres unmarked),-8.8
3,CCOC(=O)c1ccc(OCC(=O)c2ccc(O)cc2O)cc1,-7.44
4,Cc1cc(C)cc(C(=O)N2CCN=C2c2ccccc2)c1,9.92
5,COC(=O)c1cccc(/C=N/NC(N)=S)c1O,6.76
6,CCn1ncc(Cl)c1C(=O)Nc1ccc2c(c1)CCC2,3.85
7,COc1ccc(-c2cc(C(F)(F)F)nc(N3CCCCC3)n2)cc1OC,14.4
8,CCCCNC(=S)N1CCn2cccc2C1c1ccccc1 (centres unmarked),11.3
9,CC1CN(Cc2cn(C)nc2-c2ccc(Oc3ccccc3)cc2)CCN1C (centres unmarked),-57.2
10,COc1ccc(NC(=O)CSc2nc(N)c(C(=O)Nc3ccc(N(C)C)cc3)s2)cc1,12.1
11,O=C(COc1ccc(Br)cc1)NCc1ccccn1,-8.53
12,CC(=O)COc1ccccc1OC(=O)c1ccco1,-8.68
13,Cn1c(NC(=O)C(C)(C)Oc2ccc(Cl)cc2)cc(=O)n(C)c1=O,-15
14,Cc1nnc(NC(=O)CSc2nnc(CC(=O)Nc3ccccc3Cl)n2C)s1,17.6
15,COc1ccc(OC)c(NC(=S)N2CCN(c3ccccn3)CC2)c1,-2.8
16,S=c1sc2c(N3CCOCC3)ncnc2n1-c1ccccc1,-3.79
17,COC(CNC(=O)C(=O)Nc1cc2c3c(c1)CC(=O)N3CCC2)OC,13.3
18,Cc1cc(=O)oc2cc(NS(=O)(=O)c3ccccc3)ccc12,14
19,O=C(/C=C/c1ccc(Cl)cc1)Nc1ccccc1N1CCOCC1,2.84
20,CN(Cc1ccccc1)C(=S)NC(=O)c1cccs1,8.32
21,CC(C)C(NC(=O)c1ccccc1NC(=O)c1ccccc1)C(=O)NCCCn1ccnc1 (centres unmarked),-18.2
22,Cc1ccc(C)c(N2CC(C(=O)O)CC2=O)c1 (centres unmarked),-2.08
23,COc1ccc(C(=O)N/C(=C\c2cn(S(=O)(=O)N(C)C)c3ccccc23)C(=O)NCCN2CCOCC2)cc1OC,-4.68
24,C=CCNC(=O)c1onc(CSc2cc(C)cc(C)c2)c1C(=O)NCC=C,10.4
25,Cc1cc(C(F)(F)F)n(-c2nc(C(=O)NN)cs2)n1,22.4
26,CCOc1ccc2nc(N(CCN(C)C)C(=O)c3ccc4c(c3)CCCC4)sc2c1.Cl,-1.63
